Assay [1] has as its target T1, Human EphA2 (Homo sapiens, UniProt P29317).
T1 construct: EphA2 (Ecto); polyHis (C)
Kind of assay: Fluorescence polarisation direct binding assay. Conditions: read-out: KD, nM ± 95% CI Human EphA2.

Assay [2] addresses T1, Human EphA2. The assay is described as follows: Fluorescence polarisation competition binding assay. As for the experimental part: 1. Fluorescence Polarisation Measurements
(b) Competition Binding Assay
Peptides without a fluorescent tag were tested in competition with a peptide with a fluorescent tag and a known Kd (Table 2). Peptides were diluted to an appropriate concentration in assay buffer as described in the direct binding assay with a maximum of 5% DMSO, then serially diluted 1 in 2. […] Measurements were conducted as for the direct binding assay, however the gain was determined prior to the first measurement. Data analysis was in Systat Sigmaplot version 12.0 where the mP values were fit to a user defined cubic equation to generate a Ki value: f=y min+(y max−y min)/Lig*((Lig*((2*((Klig+Kcomp+Lig+Comp−Prot*c)^2−3*(Kcomp*(Lig−Prot*c)+Klig*(Comp−Prot*c)+Klig*Kcomp))^0.5*COS(ARCCOS((−2*(Klig+Kcomp+Lig+Comp−Prot*c)^3+9*(Klig+Kcomp+Lig+Comp−Prot*c)*(Kcomp*(Lig−Prot*c)+Klig*(Comp−Prot*c)+Klig*Kcomp)−27*(−1*Klig*Kcomp*Prot*c))/(2*(4(Klig+Kcomp+Lig+Comp−Prot*c)^2−3*(Kcomp*(Lig−Prot*c)+Klig*(Comp−Prot*c)+Klig*Kcomp))^3)^0.5)))/3))−(Klig+Kcomp+Lig+Comp−Prot*c)))/((3*Klig)+42*((Klig+Kcomp+Lig+Comp−Prot*c)^2−3*(Kcomp*(Lig−Prot*c)+Klig*(Comp−Prot*c)+Klig*Kcomp))^0.5*COS(ARCCOS((−2*(Klig+Kcomp+Lig+Comp−Prot*c)^3+9*(Klig+Kcomp+Lig+Comp−Prot*c)*(Kcomp*(Lig−Prot*c)+Klig*(Comp−Prot*c)+Klig*Kcomp)−27*(−1*Klig*Kcomp*Prot*c))/(2*(4(Klig+Kcomp+Lig+Comp−Prot*c)^2−3*(Kcomp*(Lig−Prot*c)+Klig*(Comp−Prot*c)+Klig*Kcomp))^3)^0.5)))/3))−(Klig+Kcomp+Lig+Comp−Prot*c)))).
“Lig”, “KLig” and “Prot” were all defined values relating to: fluorescent peptide concentration, the Kd of the fluorescent peptide and EphA2 concentration respectively.
Background: In fluorescence polarisation assays a small probe gives low polarisation when free and higher when bound to something large.

Where [3] appears, read: read-out: Ki, nM ± 95% CI Human EphA2 Fluorescent Peptide Compound 66, Table 6, fluorescent peptide Compound 66.

Where two headings read alike, the source gives them in different places.

For eight compounds, Kd and Ki results are on record in patent publication US11814447B2, “Peptide ligands for binding to EphA2” (BICYCLERD LIMITED, priority 2018, dated 2023).

T1 sequence (P29317 24-537 limits assumed): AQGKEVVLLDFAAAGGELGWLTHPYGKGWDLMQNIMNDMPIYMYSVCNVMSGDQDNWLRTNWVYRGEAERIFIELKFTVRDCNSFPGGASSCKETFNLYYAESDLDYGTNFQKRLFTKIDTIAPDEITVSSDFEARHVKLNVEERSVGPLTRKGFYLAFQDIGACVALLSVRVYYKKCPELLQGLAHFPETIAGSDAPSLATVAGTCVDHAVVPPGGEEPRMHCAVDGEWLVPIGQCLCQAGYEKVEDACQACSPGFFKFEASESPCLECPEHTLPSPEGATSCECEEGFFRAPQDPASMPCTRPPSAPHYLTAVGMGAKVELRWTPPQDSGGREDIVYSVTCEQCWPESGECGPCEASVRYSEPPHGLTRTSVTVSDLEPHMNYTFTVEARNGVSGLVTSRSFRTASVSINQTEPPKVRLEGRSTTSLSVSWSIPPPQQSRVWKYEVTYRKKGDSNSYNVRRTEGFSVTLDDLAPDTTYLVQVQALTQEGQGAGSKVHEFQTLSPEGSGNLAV

With `CSCC[C@@H]1NC(=O)[C@@H]2CCCN2C(=O)CNC(=O)[C@H](Cc2c[nH]c3ccccc23)NC(=O)[C@@H]2CCCN2C(=O)[C@@H](NC(=O)[C@H](C)NC(=O)CN(C)C(=O)CN(C)C(=O)CN(C)C(=O)CN(C)C(=O)CN(C)C(=O)CNC(=O)c2ccc3c(c2)C(=O)OC32c3ccc(O)cc3Oc3cc(O)ccc32)CSCc2cc3cc(c2)CSC[C@H](NC(=O)[C@H](Cc2c[nH]c4ccccc24)NC1=O)C(=O)N1CCC[C@H]1C(=O)N[C@@H](C(C)C)C(=O)N[C@@H](CC(N)=O)C(=O)N[C@@H](CCCNC(=N)N)C(=O)N1CCC[C@H]1C(=O)NCC(=O)N[C@H](C(=O)N[C@@H](C)C(N)=O)CSC3` [A15], the dissociation constant (Kd) in assay [1] (Table 3, fluorescently tagged TBMB peptides) is 12.6 ± 2.55 nM.
Consider `CC(C)[C@@H]1NC(=O)[C@@H]2CCCN2C(=O)[C@@H]2CSCc3cc(cc(c3)CSC[C@H](NC(=O)[C@H](C)NC(=O)CN(C)C(=O)CN(C)C(=O)CN(C)C(=O)CN(C)C(=O)CN(C)C(=O)CN(C)C(=O)CN(C)C(=O)CN(C)C(=O)CN(C)C(=O)CN(C)C(=O)CCNC(=O)c3ccc4c(c3)C(=O)OC43c4ccc(N)c(S(=O)(=O)O)c4Oc4c3ccc(N)c4S(=O)(=O)O)C(=O)N3CCC[C@H]3C(=O)N[C@@H](Cc3c[nH]c4ccccc34)C(=O)NCC(=O)N3CCC[C@H]3C(=O)N[C@@H](Cc3ccccc3)C(=O)N[C@@H](Cc3c[nH]c4ccccc34)C(=O)N2)CSC[C@@H](C(N)=O)NC(=O)CNC(=O)[C@@H]2CCCN2C(=O)[C@H](CCCNC(=N)N)NC(=O)[C@H](CC(N)=O)NC1=O` [A68], for which the dissociation constant (Kd) in assay [1] (Table 5) was found to be 15.4 ± 2.87 nM.
Still for that read-out and setting: for `CC(C)[C@@H]1NC(=O)[C@@H]2CCCN2C(=O)[C@@H]2CSCc3cc(cc(c3)CSC[C@H](NC(=O)[C@H](C)NC(=O)CN(C)C(=O)CN(C)C(=O)CN(C)C(=O)CN(C)C(=O)CN(C)C(=O)CNC(=O)c3ccc4c(c3)C(=O)OC43c4ccc(N)c(S(=O)(=O)O)c4Oc4c3ccc(N)c4S(=O)(=O)O)C(=O)N3CCC[C@H]3C(=O)N[C@@H](Cc3c[nH]c4ccccc34)C(=O)NCC(=O)N3CCC[C@H]3C(=O)N[C@@H](Cc3ccccc3)C(=O)N[C@@H](Cc3c[nH]c4ccccc34)C(=O)N2)CSC[C@@H](C(N)=O)NC(=O)CNC(=O)[C@@H]2CCCN2C(=O)[C@H](CCCNC(=N)N)NC(=O)[C@H](CC(N)=O)NC1=O` [A67] the value was 15 ± 1.72 nM.
Take `CC(=O)N(C)CC(=O)N(C)CC(=O)N[C@@H](C)C(=O)N[C@H]1CSCc2cc3cc(c2)CSC[C@H](NC(=O)[C@H](Cc2c[nH]c4ccccc24)NC(=O)[C@H](Cc2ccccc2)NC(=O)[C@@H]2CCCN2C(=O)CNC(=O)[C@H](Cc2c[nH]c4ccccc24)NC(=O)[C@@H]2CCCN2C1=O)C(=O)N1CCC[C@H]1C(=O)N[C@@H](C(C)C)C(=O)N[C@@H](CC(N)=O)C(=O)N[C@@H](CCCNC(=N)N)C(=O)N1CCC[C@H]1C(=O)NCC(=O)N[C@H](C(N)=O)CSC3` [A71]: the inhibition constant (Ki) in assay [2] (read-out: Ki, nM ± 95% CI Human EphA2 Fluorescent Peptide Compound 18, Table 6, fluorescent peptide Compound 18) amounted to 11.9 ± 7.51 nM.
As to `CSCC[C@@H]1NC(=O)[C@@H](NC(C)=O)CSCc2cc3cc(c2)CSC[C@H](NC(=O)[C@H](CC(C)C)NC(=O)[C@H](Cc2c[nH]c4ccccc24)NC(=O)[C@H](CC(=O)O)NC(=O)[C@H](CC(N)=O)NC1=O)C(=O)N[C@@H](C)C(=O)N[C@@H](CC(C)C)C(=O)NCC(=O)N[C@@H](Cc1c[nH]c2ccccc12)C(=O)N[C@@H]([C@@H](C)O)C(=O)N[C@H](C(N)=O)CSC3` [A26], the Ki is 71.6 ± 3.33 nM in assay [2] (read-out: Human EphA2 (Ki, nM ± 95% CI) Fluorescent Peptide Compound 66, Table 4, fluorescent peptide Compound 66) and 71.6 nM in assay [2] (read-out: Ki, nM ± 95% CI Human EphA2 Fluorescent peptide Compound 66, Table 9, Ala scan peptides, fluorescent peptide Compound 66).
With `CNCC(=O)N(C)CC(=O)N[C@@H](C)C(=O)N[C@H]1CSCc2cc3cc(c2)CSC[C@H](NC(=O)[C@H](Cc2c[nH]c4ccccc24)NC(=O)[C@H](Cc2ccccc2)NC(=O)[C@@H]2CCCN2C(=O)CNC(=O)[C@H](Cc2c[nH]c4ccccc24)NC(=O)[C@@H]2C[C@H](F)CN2C1=O)C(=O)N1CCC[C@H]1C(=O)N[C@@H](C(C)C)C(=O)N[C@@H](CC(N)=O)C(=O)N[C@@H](CCCNC(=N)N)C(=O)N1CCC[C@H]1C(=O)NCC(=O)N[C@H](C(N)=O)CSC3` [A75], the Ki in assay [2] (setting [3]) was determined as 400 ± 90.6 nM.
As to `CNCC(=O)N(C)CC(=O)N[C@@H](C)C(=O)N[C@H]1CSCc2cc3cc(c2)CSC[C@H](NC(=O)[C@H](Cc2c[nH]c4ccccc24)NC(=O)[C@H](Cc2ccccc2)NC(=O)[C@@H]2C[C@H](F)CN2C(=O)CNC(=O)[C@H](Cc2c[nH]c4ccccc24)NC(=O)[C@@H]2CCCN2C1=O)C(=O)N1CCC[C@H]1C(=O)N[C@@H](C(C)C)C(=O)N[C@@H](CC(N)=O)C(=O)N[C@@H](CCCNC(=N)N)C(=O)N1CCC[C@H]1C(=O)NCC(=O)N[C@H](C(N)=O)CSC3` [A81], in assay [2] (setting [3]), the inhibition constant Ki turned out to be 294 ± 99.6 nM.
In the case of `CC(C)[C@@H]1NC(=O)[C@@H]2CCCN2C(=O)[C@@H]2CSCc3cc(cc(c3)CSC[C@H](NC(=O)[C@H](C)N)C(=O)N3CCC[C@H]3C(=O)N[C@@H](Cc3c[nH]c4ccccc34)C(=O)NCC(=O)N3CCC[C@H]3C(=O)N[C@@H](C)C(=O)N[C@@H](Cc3c[nH]c4ccccc34)C(=O)N2)CSC[C@@H](C(=O)N[C@@H](C)C(N)=O)NC(=O)CNC(=O)[C@@H]2CCCN2C(=O)[C@H](CCCNC(=N)N)NC(=O)[C@H](CC(N)=O)NC1=O` [A44], the inhibition constant Ki came to 164 nM in assay [2] (read-out: Human EphA2 (Ki, nM ± 95% CI) Fluorescent Peptide Compound 1, Table 4, fluorescent peptide Compound 1) and 128 ± 28.2 nM in assay [2] (read-out: Human EphA2 (Ki, nM ± 95% CI) Fluorescent Peptide Compound 12, Table 4, fluorescent peptide Compound 12).

In general, Kd refers to the constant that tells how readily two partners part at equilibrium. The Ki is the equilibrium dissociation constant of an inhibitor or competing ligand from its target.
